# Data from PMC3524126.
# Chains of the proteins cited; added tags and fusions are not shown. Lines headed by an entry give the natural chain unless they say otherwise; changes in a name come on top. Residues count along the entry.
# UniProt P40238, residues 26-635: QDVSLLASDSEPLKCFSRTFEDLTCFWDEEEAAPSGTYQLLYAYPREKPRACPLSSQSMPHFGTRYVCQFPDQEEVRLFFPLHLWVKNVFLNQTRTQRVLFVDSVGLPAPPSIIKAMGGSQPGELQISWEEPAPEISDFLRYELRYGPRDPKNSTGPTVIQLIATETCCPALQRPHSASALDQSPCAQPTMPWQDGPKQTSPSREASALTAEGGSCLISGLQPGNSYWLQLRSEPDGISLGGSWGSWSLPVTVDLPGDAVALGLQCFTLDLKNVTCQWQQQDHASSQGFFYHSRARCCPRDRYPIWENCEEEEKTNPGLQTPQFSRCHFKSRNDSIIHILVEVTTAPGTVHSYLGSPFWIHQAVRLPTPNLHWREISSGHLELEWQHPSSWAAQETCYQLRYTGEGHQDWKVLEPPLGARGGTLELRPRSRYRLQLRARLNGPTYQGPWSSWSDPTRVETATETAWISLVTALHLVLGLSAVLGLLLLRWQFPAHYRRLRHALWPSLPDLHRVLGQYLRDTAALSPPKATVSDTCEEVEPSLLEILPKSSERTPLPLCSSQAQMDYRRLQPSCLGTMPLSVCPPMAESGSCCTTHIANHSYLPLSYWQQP
# UniProt Q9Y266: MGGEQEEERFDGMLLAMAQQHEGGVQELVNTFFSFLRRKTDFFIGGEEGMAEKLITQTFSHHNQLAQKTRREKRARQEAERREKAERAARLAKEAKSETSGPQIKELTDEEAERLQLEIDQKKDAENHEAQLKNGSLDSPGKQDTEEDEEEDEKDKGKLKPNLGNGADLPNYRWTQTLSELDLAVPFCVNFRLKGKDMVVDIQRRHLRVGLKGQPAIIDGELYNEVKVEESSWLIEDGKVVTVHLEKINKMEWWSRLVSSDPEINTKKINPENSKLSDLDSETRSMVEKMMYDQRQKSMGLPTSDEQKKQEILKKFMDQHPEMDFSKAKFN
# These are yes or no findings as the source states them, for the method shown. Binding seen in cells or lysates may run through a third protein. Some results given as binding are weak or reduced against the parent protein; the word gives no strength.
# Legend:
# [1] = target: Flag-Mpl-VN (full-length thrombopoietin receptor Mpl fused to the N-terminal half of Venus) (UniProt P40238); experiment: split reporter; Venus BiFC read by confocal microscopy in living Cos-1 cells; 250 ng DNA of each construct, 12 h after transfection at 37°C
# [2] = target: Flag-Mpl-VN (full-length thrombopoietin receptor Mpl fused to the N-terminal half of Venus) (UniProt P40238); experiment: split reporter; Venus BiFC read by flow cytometry of Cos-1 cells, 12 h after transfection; 1x10^4 cells, Venus-positive cells against untransfected and empty-vector cells
# [3] = target: Mpl-YFP (thrombopoietin receptor Mpl fused upstream of yellow fluorescent protein) (UniProt P40238); experiment: FRET or BRET; acceptor photobleaching FRET, CFP donor and YFP acceptor, Cos-1 cells fixed 24 h after transfection
binding [1],binding [2],binding [3],Substance
binds,,,HA-hNUDC(1-159)-VC (N-terminal half of hNUDC fused to the C-terminal half of Venus) (from UniProt Q9Y266 1-159) (domain or fragment)
no binding,no binding,,HA-hNUDC(160-331)-VC (C-terminal half of hNUDC fused to the C-terminal half of Venus) (from UniProt Q9Y266 160-331) (domain or fragment)
binds,,,HA-hNUDC-VC (full-length human NUDC fused to the C-terminal half of Venus) (from UniProt Q9Y266 1-331)
,,no binding,hNUDC(160-331)-CFP (from UniProt Q9Y266 160-331) (domain or fragment)
